# Test results published in PubChem BioAssay AID686970 (National Center for Advancing Translational Sciences (NCATS), 2013).
# The campaign covered roughly 360,000 compounds. About 6,000 (1.7%) were called active. The shares of active, inactive and inconclusive entries below differ from those in the screen. Calls come from the whole dose curve; as a rule, active = well fitted cell-killing curve with a large enough effect; inconclusive = small, poorly fitted or top-dose-only effect, or effect the other way; inactive = flat fitted curve, though single readings scatter. No potency is given beside an inconclusive call; the fits are too rough.
# Experiment: qHTS for induction of synthetic lethality in tumor cells producing 2HG: qHTS for the HT-1080-NT fibrosarcoma cell line;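 note: NT is the 2HG producing partner of a matched IDH1 knockdown line; nearly all actives have a fitted effect of over 55% in size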;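 for activity, negative = less viability: 0% = DMSO-treated cells and -100% = media-only wells without cells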
# Conditions: HT-1080-NT fibrosarcoma viability, CellTiter-Glo ATP luminescence, 48 h; activity, negative = less viability: at 46.1 µM (top of the series) unless noted
# Method in brief: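 Viability by CellTiter-Glo luminescence after 48 h compound exposure at 37C of HT-1080-NT cells (750/well, RPMI, 5% FBS). % activity scaled between DMSO wells and medium-only wells, then curve-fitted and categorized by curve class.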
# Potency is the fitted concentration of half-maximal effect; tags give direction and shape of the fitted curve.
SMILES,Potency,"activity, negative = less viability"
CC(C)C[C@H]1CNC(=O)C(=O)N1CC1CCN(CCC(C)c2ccccc2)CC1 (some centres not stated),inactive,
COC1=C(Nc2ccccc2)C(=O)c2ccccc2C1=O,"inconclusive [cytotoxic, partial curve]",
COC(=O)c1ccc(OC)c(CSc2nnc(COc3ccccc3)o2)c1,inactive,
C[C@@H]1CCC[C@]2(O[C@H](CCO)C[C@@H](O)[C@@H]2O)O1,inactive,
CC1(C)C(c2ccccc2)=[N+]([O-])CN1O,"inconclusive [rising, partial curve, poor fit]",
Cc1ccc(N(CCC#N)C(=O)CCl)cc1C,active: 9.2 µM,
O=C(NCC1CCCO1)c1ccc(Br)s1 (configuration not stated),inactive,
COc1ccc(NC(=O)N(C)C[C@@H]2OCc3cn(nn3)CCCC(=O)N([C@@H](C)CO)C[C@H]2C)cc1,inactive,
COc1ccc(NC(=O)CN(C)C2CCS(=O)(=O)C2)cc1 (configuration not stated),inactive,
C[C@@H](NC(=O)Cn1cnc2c(OCc3ccccc3)ncnc21)c1cccc2ccccc12,"inconclusive [cytotoxic, single point]",
COc1ccc(OCC(O)Cn2c(=N)n(CCN3CCCCC3)c3ccccc32)cc1 (configuration not stated),active: 18.4 µM,
O=[N+]([O-])c1c(Nc2ccccn2)cc(Cl)c2nonc12,"inconclusive [cytotoxic, single point]",
Nc1nc(CN2CCN(C(c3ccccc3)c3ccccc3)CC2)nc(Nc2ccccc2)n1,"inconclusive [cytotoxic, single point]",
CCOC(=O)c1ccc2c(c1)nc(COc1ccc3ccccc3c1)n2CC,"inconclusive [cytotoxic, single point]",
C=CC[C@@H](CC(=O)N(CCO)Cc1ccccc1)C(=O)N[C@H](COC(=O)[C@@H](CC=C)Cc1ccc(F)cc1)Cc1c[nH]c2ccccc12,"inconclusive [cytotoxic, single point]",
CCOC(=O)c1[nH]c2ccc(Br)cc2c1NC(=O)CCN1CCC(C)CC1,,inconclusive: -38.7% [cytotoxic]
O=C(COc1ccc(Cl)cc1)NCCCNC(=O)c1cccnc1,"inconclusive [cytotoxic, single point]",
O=C(NCc1cccnc1)c1ccc([N+](=O)[O-])o1,"inconclusive [cytotoxic, single point]",
COc1ccc(C2=NN(C(=O)c3ccco3)C(c3ccco3)C2)cc1OC (configuration not stated),inactive,
Cc1ccc(N2C(=O)c3cccc4c(N)ccc(c34)C2=O)c2cccnc12,active: 0.0206 µM,
CCOC(=O)c1ccc(NC(=O)NC2=NCCS2)cc1,active: 2.59 µM,
O=C(Nc1nnc(-c2ccccc2Cl)o1)c1nc2ccccc2s1,"inconclusive [cytotoxic, single point]",
COc1ccc2sc(-c3ccc(N(C)C)cc3)c(C#Cc3cncn3C)c2c1,active: 25.9 µM,
O=C1NC(c2ccccc2)=C(c2ccc3ccccc3n2)C(c2ccncc2)N1 (configuration not stated),inactive,

SMILES,Potency,"activity, negative = less viability"
N=c1n(Cc2ccccc2)c2ccccc2n1Cc1ccccc1,"inconclusive [cytotoxic, single point]",
CCCCCCCCN1C(=O)[C@H](CC(=O)NCc2cccc3ccccc23)C[C@@]2(C(=O)OCC)CCC=C12,"inconclusive [cytotoxic, single point]",
CCOC(=O)C1(Cc2cccc(Cl)c2)CCCN(C(=O)c2cc(C)on2)C1 (configuration not stated),inactive,
O=C(Cn1nc2ccccc2n1)N/N=C/c1cc(Cl)cc([N+](=O)[O-])c1O,,inconclusive: -21% [cytotoxic]
CC1CCN(CCOc2ccc(C(=O)c3ccccc3)cc2)CC1,inactive,
Cc1ccc(C)c(N2CCN(C(=O)c3ccc(Cn4c(=O)[nH]c5ccccc5c4=O)cc3)CC2)c1,"inconclusive [cytotoxic, single point]",
O=C(NCc1ccccn1)C(F)(F)C(F)(F)C(=O)NCc1ccccn1,,inconclusive: 48.3%
Cc1ccc(-c2ccc(/C=C3\SC(N4CCOCC4)=NC3=O)o2)cc1,active: 9.2 µM,
CCC(C)(C)n1nnnc1C(c1ccc2ncccc2c1)N1CCN(c2nc3ccccc3s2)CC1 (configuration not stated),"inconclusive [cytotoxic, single point]",
OC(CN1CCOCC1)Cn1c(-c2cccc(Cl)c2)nc2ccccc21 (configuration not stated),inactive,
Cc1ccc(C(=O)Nc2nccc(-c3cccs3)n2)cc1,inactive,
COc1cc(O)cc(/C=C/c2ccccc2)c1,"inconclusive [cytotoxic, single point]",
CCOc1ccccc1N1CCN(C2=C(NS(=O)(=O)c3cccs3)C(=O)c3ccccc3C2=O)CC1,"inconclusive [cytotoxic, partial curve]",
CC(=O)Nc1ccc(NC(=O)/C=C/c2ccc3c(c2)OCO3)cc1,"inconclusive [cytotoxic, partial curve, poor fit]",
C#CCNC(=O)C1=C[C@@H](c2ccc(C(F)(F)F)cc2)C[C@@H](OCCCCO)O1,inactive,
COc1ccc([C@H]2C[C@H](n3cc(C4CC4)nn3)[C@@H](O)CN2C(=O)C2CCCCC2)cc1,inactive,
Cc1ccc(OCC(=O)Nc2ccc(N3CCN(C(=O)c4ccco4)CC3)cc2)c(C)c1,inactive,
O=C(Nc1cc(F)cc(F)c1)c1ccc(NCCCN2CCCCCC2)c([N+](=O)[O-])c1,"inconclusive [cytotoxic, partial curve]",
Cc1ccc(C(=O)N/N=C/c2c(O)ccc3ccccc23)cn1,,inconclusive: -18.5% [cytotoxic]
Cc1cc(C)c(NC(=S)N2CCN(c3ccc([N+](=O)[O-])cn3)CC2)cc1C,inactive,
CC(NC(=O)Cc1ccc(S(=O)(=O)N2CCOCC2)s1)c1ccc(Cl)c(Cl)c1 (configuration not stated),inactive,
CCOc1ccc(NCc2nnc(SCc3ccccc3Cl)n2-c2ccccc2)cc1,"inconclusive [cytotoxic, single point]",
COc1ccccc1NC(=O)Nc1nc(C(N)Cc2ccccc2)cs1 (configuration not stated),active: 23.1 µM,
COc1ccc(C(=O)c2[nH]c(N)c(C(=O)NCCc3c[nH]c4ccccc34)c2-c2ccc(Cl)cc2)cc1,"inconclusive [cytotoxic, single point]",

SMILES,Potency,"activity, negative = less viability"
CCN(CC)c1ncnc2c1ncn2[C@H]1CN(Cc2cccnc2)C[C@@H](CO)O1,"inconclusive [rising, single point]",
CC(=O)OCCCN(C)CC/C=C1/c2ccccc2CSc2ccccc21,"inconclusive [cytotoxic, single point]",
COC(=O)c1c(NC(=O)c2ccccc2N(C)S(=O)(=O)c2ccccc2)sc2c1CCCC2,"inconclusive [cytotoxic, partial curve]",
CN(C)c1ccc(C=c2c3ccccc3n3c2cc(-c2ccc(Cl)cc2)[n+]3C)cc1,"inconclusive [cytotoxic, single point]",
COc1ccccc1NC(=O)c1cc(C(=O)Nc2ccccc2OC)cc(N2C(=O)CCC2=O)c1,"inconclusive [cytotoxic, single point]",
CCC(=O)NC(=S)N1CCN(c2ccc([N+](=O)[O-])cc2Cl)CC1,"inconclusive [cytotoxic, single point]",
CSc1nnc2c(n1)OC(c1ccccn1)N(C(C)=O)c1ccccc1-2 (configuration not stated),inactive,
Cc1ccc2nc(-c3cccc(NC(=O)c4ccco4)c3)[nH]c2c1,"inconclusive [cytotoxic, single point]",
CCOC(=O)c1ccc(Nc2cc(C)nc(-c3ccccc3)n2)cc1,active: 16.4 µM,
C/C(=N\NC(=S)NCc1ccccc1)c1ccc2ccccc2c1OC(F)F,"inconclusive [cytotoxic, single point]",
CCC(=O)Nc1nnc(S(=O)(=O)N(CC)c2cc(C)cc(C)c2)s1,inactive,
O=[N+]([O-])c1ccccc1C=NNc1ccccc1,"inconclusive [cytotoxic, full curve]",
C#CCN(CC=C)C(=O)c1ccc(OC2CCN(S(=O)(=O)N(C)C)CC2)cc1,"inconclusive [cytotoxic, single point]",
O=C(N/N=C1\CC(c2ccccc2)Oc2ccccc21)c1cccnc1 (configuration not stated),"inconclusive [cytotoxic, partial curve]",
Cc1cccc(NC(=S)N2CCOCC2)c1C,inactive,
CCC(C)C(NC(=O)OC(C)(C)C)C(=O)NC(C)C(N)=O (configuration not stated),inactive,
COc1cc(OC)cc(C(=O)N/N=C/c2ccc(OC)c(COc3ccc(F)cc3)c2)c1,"inconclusive [cytotoxic, full curve]",
O=[N+]([O-])c1ccc(NNC(=S)Nc2ccc(F)cc2)cc1,"inconclusive [cytotoxic, single point]",
O=C(CCl)NCCNC(=O)c1cc(OCC(F)(F)F)ccc1OCC(F)(F)F,"inconclusive [cytotoxic, single point]",
COc1ccccc1NS(=O)(=O)c1cc(NC(=O)CN2C(=O)NC3(CCCC3)C2=O)ccc1C,inactive,
CCCOc1ccc(N2C(=O)CC(NCc3cccnc3)C2=O)cc1 (configuration not stated),inactive,
O=C(NCc1ccncc1)C1CCCN(S(=O)(=O)c2cc(Cl)ccc2Cl)C1 (configuration not stated),inactive,
Nc1n[nH]c(C2CC2)c1N=Nc1ccc(Cl)c(Cl)c1,"inconclusive [cytotoxic, single point]",
COc1ccc(-c2cc(C#N)nc(NN)n2)cc1,"inconclusive [cytotoxic, single point]",
